Measured values: patent publication US20140106440A1, “ENHANCED ENZYMATIC CO2 CAPTURE TECHNIQUES ACCORDING TO SOLUTION PKA, TEMPERATURE AND/OR ENZYME CHARACTER” (CO2 SOLUTIONS INC., priority 2011, published 2014)

Tested on: thermostable variant of hCA II ('5X' mutant, M5X)
Conditions: for kOV: 298 K

| Compound | kOV (alkanolamine concentration 1.0 kmol m^−3, M5X 50 mg/L) | kOV (alkanolamine concentration 1.0 kmol m^−3, M5X 100 mg/L) | kOV (alkanolamine concentration 1.0 kmol m^−3, M5X 400 mg/L) | kOV (alkanolamine concentration 2.0 kmol m^−3, M5X 50 mg/L) | kOV (alkanolamine concentration 2.0 kmol m^−3, M5X 100 mg/L) | kOV (alkanolamine concentration 2.0 kmol m^−3, M5X 200 mg/L) | kOV (alkanolamine concentration 2.0 kmol m^−3, M5X 400 mg/L) | k3* (least squares method, 5X CA) | k4* (least squares method, 5X CA) |
| --- | --- | --- | --- | --- | --- | --- | --- | --- | --- |
| CN(C)CCO [DMMEA, dimethylethanolamine] | 169 s⁻¹ | 325 s⁻¹ | 1045 s⁻¹ | 194 s⁻¹ | 341 s⁻¹ | 638 s⁻¹ | 1082 s⁻¹ |  |  |
| NCCO [MEA, monoethanolamine] |  |  |  |  |  |  |  | 0.057 m^6 · mol^−1 · kg^−1 · s^−1 | 0.040 m^3 · kg^−1 |

Where two headings read alike, the source gives them in different places.
